# Screen size: about 39,000 compounds; about 220 (0.56%) showed activity. The list shows a part of the results.
# System: Escherichia coli K-12 BW25113
# Assay: relative growth (OD600 normalised to plate interquartile mean) (fraction); higher = less growth inhibition, active = 0.2 or less
# Conditions: 50 µM; LB; incubation time: overnight (16-24 h)
# 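Further: static incubation at 37 °C against the wild-type strain, values averaged over two biological replicates.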
row,Compound,relative growth
1,C[C@@H]1CN([C@H](C)CO)C(=O)c2cc(NS(=O)(=O)c3cn(C)cn3)ccc2O[C@H]1CN(C)Cc1ccccc1,inactive: 0.988
2,C[C@H]1CN([C@@H](C)CO)C(=O)Cc2cc(NC(=O)Nc3ccc4c(c3)OCO4)ccc2O[C@@H]1CN(C)Cc1ccc(C(F)(F)F)cc1,inactive: 1.03
3,C[C@H](CO)N1C[C@H](C)[C@H](CN(C)S(=O)(=O)c2cn(C)cn2)Oc2ccc(NC(=O)CCCCCC(=O)Nc3ccccc3N)cc2C1=O,inactive: 1
4,COCC(=O)Nc1ccc2c(c1)OC[C@H](C)N(C(=O)Cc1cccnc1)C[C@H](C)[C@@H](OC)CN(C)C2=O,inactive: 1.05
5,CNC[C@H](O)c1cccc(O)c1,inactive: 1.02
6,C[C@@H](Oc1ccccc1)c1ccn[nH]1,inactive: 1.03
7,Cc1nnc(NCc2ccccc2)n(N)c1=O,inactive: 0.975
8,O=C(C[C@@H]1CC[C@H]2[C@@H](COC[C@H](O)CN2S(=O)(=O)c2ccccc2)O1)N[C@@H]1CCN(Cc2ccccc2)C1,inactive: 0.849
9,O=C(C[C@@H]1CC[C@@H]2[C@H](COC[C@H](O)CN2S(=O)(=O)c2cccc(Cl)c2)O1)NCCCN1CCOCC1,inactive: 0.966
10,C[C@H](CO)N1C[C@H](C)[C@H](CN(C)C)Oc2ccc(NS(=O)(=O)c3ccc(Cl)cc3)cc2CC1=O,inactive: 0.999
11,C[C@@H]1CN([C@H](C)CO)C(=O)c2cc(NC(=O)Cc3ccccc3)ccc2O[C@@H](C)CCCCO[C@H]1CN(C)S(=O)(=O)c1ccc(F)cc1,inactive: 0.998
12,CC(C)NC(=O)Nc1cccc2c1O[C@H](CN(C)S(=O)(=O)c1ccccc1)[C@@H](C)CN([C@H](C)CO)C2=O,inactive: 0.986
13,NC[C@@H]1CCCO1,inactive: 1.03
14,CC(=O)OCC(=O)C1(O)C(OC(C)=O)CC2C3CCC4=CC(=O)C=CC4(C)C3(F)C(O)CC21C (stereo not drawn),inactive: 0.942
15,COC(=O)C1(N2CC3=C[C@@H]([C@@H](O)Cc4ccccc4)n4c(=O)n(C)c(=O)n4[C@@H]3[C@@H](C3CC3)O2)CCCC1,inactive: 0.999
16,CN(C)Cc1cn(CC[C@H]2CC[C@H](N)[C@@H](CO)O2)nn1,inactive: 0.921
17,COCC(=O)Nc1ccc2c(c1)C(=O)N(C)[C@H]1CC[C@H](CC(=O)NCc3ccccc3Cl)O[C@H]1CO2,inactive: 1.01
18,C[C@@H]1CN([C@H](C)CO)C(=O)c2cc(NC(=O)Cc3ccccc3)ccc2O[C@@H](C)CCCCO[C@H]1CN(C)C(=O)c1ccccc1,inactive: 0.994
19,CN(C)CCCNC(=O)C[C@H]1CC[C@H]2[C@H](COc3ccc(NC(=O)c4cccc(F)c4)cc3C(=O)N2C)O1,inactive: 1
20,Cc1noc(C)c1NC(=O)Nc1ccc2c(c1)C(=O)N([C@H](C)CO)C[C@@H](C)[C@H](CN(C)C(=O)Nc1ccc(C(F)(F)F)cc1)O2,inactive: 0.981
21,C[C@H](CO)N1C[C@H](C)[C@@H](CN(C)Cc2ccncc2)Oc2c(NC(=O)Cn3cnnn3)cccc2C1=O,inactive: 1.02

row,Compound,relative growth
1,Cc1nn(C)cc1NC(=O)C[C@H]1CC[C@@H]2[C@H](COc3ccc(NC(=O)C4CCOCC4)cc3C(=O)N2C)O1,inactive: 1.02
2,C[C@H](CO)N1C[C@H](C)[C@@H](CN(C)Cc2ccc(C(F)(F)F)cc2)OCCCC[C@H](C)Oc2ccc(NC(=O)Nc3cccc4ccccc34)cc2C1=O,inactive: 1.01
3,O=C(C[C@H]1C[C@H]2c3cc(NC(=O)Cc4ccncc4)ccc3O[C@H]2[C@@H](CO)O1)NCc1cc(F)ccc1F,inactive: 0.974
4,CCCCN(CCCC)CCCOC(=O)c1ccc(N)cc1.O=S(=O)(O)O,inactive: 0.986
5,COc1ccc(NC(=O)Nc2ccc3c(c2)C(=O)N([C@@H](C)CO)C[C@H](C)[C@@H](CN(C)Cc2ccc(Cl)c(Cl)c2)O3)cc1,inactive: 1.01
6,CCOC(=O)c1cc(=O)c2cc([C@@H]3CC(=O)N(C(=O)OCc4ccccc4)[C@@H]3C(=O)Nc3cccc4cccnc34)ccc2o1,inactive: 1.01
7,CC(C)=CCCC(C)=CCOc1ccc2ccc(=O)oc2c1,inactive: 0.886
8,C[C@H](CO)N1C[C@H](C)[C@H](CN(C)C(=O)Cc2ccccc2)OCCCC[C@H](C)Oc2ccc(NC(=O)CCC(F)(F)F)cc2C1=O,inactive: 0.959
9,CN(CC=CC#CC(C)(C)C)Cc1cccc2ccccc12.Cl,inactive: 0.985
10,C[C@@H]1CN([C@H](C)CO)C(=O)Cc2cc(NC(=O)CCCCCC(=O)Nc3ccccc3N)ccc2O[C@H]1CN(C)CC1CCCCC1,inactive: 1
11,C[C@@H]1CCCCO[C@H](CN(C)Cc2ccccc2)[C@H](C)CN([C@@H](C)CO)C(=O)c2cc(NS(=O)(=O)c3ccc(F)cc3)ccc2O1,inactive: 0.995
12,Cc1noc(C)c1NC(=O)Nc1ccc2c(c1)CC(=O)N([C@@H](C)CO)C[C@@H](C)[C@@H](CN(C)Cc1ccc(C(=O)Nc3ccccc3N)cc1)O2,inactive: 0.983
13,C=CCOC(=O)[C@@H]1[C@H]2C(=O)O[C@H](c3ccccc3)[C@H](c3ccccc3)N2[C@H](c2ccc(OCCOC(=O)[C@H]3C[C@H]4C(=O)NCC(=O)N4[C@H]3c3cccc(OCCO)c3)cc2)[C@@]12C(=O)Nc1ccccc12,inactive: 1.03
14,C[C@@H]1CCCCO[C@@H](CN(C)C(=O)Nc2ccc(F)cc2)[C@@H](C)CN([C@H](C)CO)C(=O)c2cc(NS(=O)(=O)c3ccc(Cl)cc3)ccc2O1,inactive: 1.02
15,CN(c1ncccc1CNc1nc(Nc2ccc3c(c2)CC(=O)N3)ncc1C(F)(F)F)S(C)(=O)=O,inactive: 1.04
16,C[C@H](CO)N1C[C@H](C)[C@H](CN(C)C(=O)CN(C)C)Oc2cc(C#CC(C)(C)O)ccc2S1(=O)=O,inactive: 0.969
17,C[C@H]1CN([C@@H](C)CO)C(=O)c2cccc(NC(=O)Nc3ccccc3)c2O[C@@H]1CN(C)Cc1ccc(C(=O)Nc2ccccc2N)cc1,inactive: 1.01
18,NS(=O)(=O)c1ccc(Cl)c(S(N)(=O)=O)c1,inactive: 0.944
19,C[C@@H]1CCCCO[C@H](CN(C)C(=O)C2CCCCC2)[C@@H](C)CN([C@@H](C)CO)C(=O)c2cc(NC(=O)C3CCCCC3)ccc2O1,inactive: 1
20,Cc1nc(=O)c2cccc(O)c2[nH]1,inactive: 0.983
21,C[C@@H]1CN([C@H](C)CO)C(=O)c2cc(NC(=O)Cn3cnnn3)ccc2O[C@@H]1CN(C)C(=O)Nc1ccc(C(F)(F)F)cc1,inactive: 0.974

row,Compound,relative growth
1,NCc1ccccc1Sc1ccccc1CO,inactive: 0.971
2,COc1cccc(S(=O)(=O)N2C[C@@H](O)COC[C@@H]3O[C@@H](CC(=O)N4CCN(C)CC4)CC[C@H]32)c1,inactive: 0.971
3,CN(C)C(=O)N1CCOC[C@@]2(C1)CN(c1cnn(C)c1)C(=O)CO2,inactive: 0.989
4,C[C@@H]1CCCCO[C@H](CN(C)Cc2ccc3c(c2)OCO3)[C@H](C)CN([C@@H](C)CO)C(=O)c2cc(NC(=O)C3CCCCC3)ccc2O1,inactive: 0.992
5,O=c1c(O)c(O)cc2cccc(O)c(O)c1-2,inactive: 0.831
6,C[C@H]1CCCCO[C@H](CN(C)S(=O)(=O)c2ccc(Cl)cc2)[C@@H](C)CN([C@@H](C)CO)C(=O)c2cc(NS(=O)(=O)c3ccc(F)cc3)ccc2O1,inactive: 1.03
7,CN1CCN(C(=O)C[C@H]2CC[C@H]3[C@@H](COC[C@@H](O)CN3C(=O)C3CCCC3)O2)CC1,inactive: 1.03
8,COc1cccc(NC(=O)N[C@@H]2C=C[C@H](CC(=O)N3CCN(C)CC3)O[C@H]2CO)c1,inactive: 0.998
9,C[C@@H]1CN([C@H](C)CO)C(=O)c2cc(NC(=O)Nc3cccc4ccccc34)ccc2O[C@@H]1CN(C)C(=O)Nc1ccc2c(c1)OCO2,inactive: 0.999
10,COc1cccc(NC(=O)N[C@@H]2C=C[C@@H](CC(=O)N3CCN(C)CC3)O[C@H]2CO)c1,inactive: 1.02
11,C[C@H](CO)N1C[C@H](C)[C@@H](CN(C)CC2CCCCC2)Oc2c(NC(=O)Nc3ccc(C(F)(F)F)cc3)cccc2C1=O,inactive: 0.851
12,C[C@H]1CN([C@@H](C)CO)C(=O)c2cccc(NS(C)(=O)=O)c2O[C@H]1CN(C)C(=O)Nc1ccc(C(F)(F)F)cc1,inactive: 0.981
13,COc1ccc(S(=O)(=O)Nc2ccc3c(c2)C(=O)N([C@H](C)CO)C[C@H](C)[C@H](CN(C)S(=O)(=O)c2cn(C)cn2)OCCCC[C@H](C)O3)cc1,inactive: 0.956
14,CC(=O)N[C@@H](CS)C(=O)O,inactive: 1
15,O=C(C[C@@H]1C/C=C/CCC(=O)O[C@H](c2ccccc2)CNC1=O)NCc1ccc(Cl)c(C(F)(F)F)c1,inactive: 0.984
16,COCC(=O)N[C@@H]1C=C[C@H](CC(=O)N2CCCCC2)O[C@@H]1CO,inactive: 1.02
17,COc1ccc2c3c(n(c2c1)C)[C@H](CO)N(Cc1ccccc1)C[C@]13CCN(CC1)C(=O)Nc1cccc(c1)F,inactive: 1.01
18,CC(=O)O[C@@]1(C)C[C@@H](O)[C@@H]2C=CO[C@@H](O[C@@H]3O[C@H](CO)[C@@H](O)[C@H](O)[C@H]3O)[C@@H]21,inactive: 1.02
19,Cc1noc(C)c1NC(=O)Nc1cccc2c1O[C@@H](CN(C)C(=O)Nc1ccc(C(F)(F)F)cc1)[C@H](C)CN([C@H](C)CO)C2=O,inactive: 0.907
20,C[C@H]1CN([C@@H](C)CO)C(=O)CCCn2cc(nn2)CO[C@H]1CN(C)Cc1ccc(C(=O)Nc2ccccc2N)cc1,inactive: 0.999
21,CCN(CC)CCOc1ccc2c(c1)C(=O)c1cc(OCCN(CC)CC)ccc1-2,inactive: 1.03

# Reference: the supplement of paper PMC9446081
